B1: tRNA (parent)
chain: CUCUCGGUAGCCAAGUUGGUUUAAGGCGCAAGACUUUAAUUUAUCACUACGAAAUCUUGAGAUCGGGCGUUCGACUCGCCCCCGGGAGAUUUUUUCCUCGAGCAA

Variants at the background level are over-represented here.

Variants of B1 are the subject of this data set. The experiment in a line: nonsense suppression (GFP-seq) (ratio to wild type); higher = more function; SUP4oc tRNA, yeast GFP reporter sort-seq. The method in brief: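 To measure nonsense suppression, tRNA variants from a library carrying ~3% random mutations were integrated into the yeast genome alongside RFP and a GFP ochre reporter under galactose control. Growth took place in raffinose/galactose medium supplemented with 80 mg/L adenine, followed by sorting into GFP/RFP bins and Illumina sequencing of each bin (phred ≥30). For each variant with ≥100 reads and ≥30 cells, the bin median GFP/RFP values were weighted by its estimated cell share per bin and referenced to the unmutated parent tRNA.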
With U21A C27U C34U C83U, the nonsense suppression was at most 0.026. Consider U2G C12G U22C A23U C27U U63C G66A U71C, for which the nonsense suppression was at most 0.026. Consider G7U U57G A62C C80U, for which the nonsense suppression was at most 0.026. The figure for U17C U22G A33U U35G is at most 0.026. U8A U17A G19A G28U C56A G59U: the nonsense suppression is at most 0.026. As for U21G A23G U70C C77G A89U, the nonsense suppression is at most 0.026. For the variant C3A C11A C34U G69C, the nonsense suppression is at most 0.026. The figure for C11A U22C C77U G86C is at most 0.026. The figure for C12U G32U C56G U58C G85C is at most 0.026; for C5U U16A C64A G67C G88A it is at most 0.026.

For A14G A23G A74C, the nonsense suppression is at most 0.026. The figure for A62C G73U is at most 0.026; for A30G G61A it is 0.75; for U8C G67A A74C it is at most 0.026.

For U4G G86U, the nonsense suppression was at most 0.026. The figure for C11A G26U A62G U63G G67U A74U is at most 0.026. Consider U4G G18C C77A, for which the nonsense suppression is at most 0.026. The figure for C1U C3A A13C G65A is at most 0.026; for U16A C56G G78C it is at most 0.026; for U4A U16A it is 0.215. The figure for G6C G67C is at most 0.026; for C3A G86C it is at most 0.026. The figure for U8A U57G C82A is at most 0.026; for U71A C82U it is at most 0.026. Turning to C3A C27G G65A, the nonsense suppression was at most 0.026. As to C29A C79G C83G A87U, the nonsense suppression is at most 0.026. The figure for A14G A30G A31G G69A is at most 0.026; for G67U A74U it is at most 0.026. As to C1U C5U C11U U16G C34G U63G G66C, the nonsense suppression is at most 0.026. As for G19A G66A, the nonsense suppression was at most 0.026. The figure for A23G A54C C56A C68U is at most 0.026; for G10A G61C U70C U71C G85A it is at most 0.026; for U2A G19U U22G U35A A87U it is at most 0.026. The figure for C3A C29U is at most 0.026; for U2C C12U G15U A31C U76C it is at most 0.026. For U8G C56A, the nonsense suppression is at most 0.026. The figure for G67A C72G is at most 0.026; for U57A C81G A89G it is at most 0.026; for G25U U76G it is at most 0.026. The figure for U4C U71C C81A A89C is at most 0.026; for C27G G67U it is at most 0.026; for C1G A24C C34U it is at most 0.026. As for U55C G73A, the nonsense suppression was 0.0331. Consider A9U C64G G69U, for which the nonsense suppression is at most 0.026. Consider G10U U17G G25C, for which the nonsense suppression was at most 0.026. For the variant C29G A87G, the nonsense suppression was at most 0.026. Turning to G15A C34G, the nonsense suppression was at most 0.026.

Consider U35A U70C C82G A87U, for which the nonsense suppression was at most 0.026. The figure for C3A A14U C34U U35C G88U is at most 0.026; for G6A A23U G85A it is at most 0.026; for G15C C68U it is at most 0.026.

Turning to A24C G26A A60U, the nonsense suppression was at most 0.026.

A33G G61C: the nonsense suppression was 0.034.

In the case of G19C U35C C72U, the nonsense suppression was at most 0.026. G7C C82U: the nonsense suppression was at most 0.026.

Turning to G19C G61U, the nonsense suppression is at most 0.026. The figure for A24G G69A G78A is at most 0.026.

U4C U35G G61A G78A C83A G86C: the nonsense suppression is at most 0.026. The figure for C29U G69U U70G is at most 0.026; for U8A G32C it is at most 0.026; for U4C C82A A89G it is at most 0.026. The figure for C11U G84C is at most 0.026; for A30C G85C it is at most 0.026.

Turning to A14U G67C, the nonsense suppression is at most 0.026.

Take G25A C68U: the nonsense suppression is at most 0.026. G15A U55A: the nonsense suppression is at most 0.026. As to C56A C64U U70A U76C C82U, the nonsense suppression was at most 0.026. The figure for G25C G61A is at most 0.026; for U2C C79G it is at most 0.026; for C12A A23C U35A G73A it is at most 0.026. In the case of U17C A31C C64U, the nonsense suppression was at most 0.026. The figure for G7C A31U C34G G61U is at most 0.026. The figure for C12A C64G U76G is at most 0.026; for C34A G59C G86C it is at most 0.026. With G28C G67C C79G, the nonsense suppression is at most 0.026. Consider U8A A60G G66U, for which the nonsense suppression is at most 0.026. Consider U16C U17A U55G G78U C81A, for which the nonsense suppression was at most 0.026. The figure for C3U G59C A60U is at most 0.026; for A33G A62G G88C it is at most 0.026; for A23G C75A G78C it is at most 0.026.

Turning to G7C U76C, the nonsense suppression is at most 0.026. As to G26A C56G U57A G88C, the nonsense suppression is at most 0.026. U2C U8G G61C U70A G78A: the nonsense suppression was at most 0.026. For the variant A9U G61U, the nonsense suppression came out at 0.573.

The record behind these values is the RNAGym collection of RNA variant scans (doi:10.1101/gad.245936.114).
